Over roughly 33,000 sequences, “E-score (-0.5 to 0.5)” has its median near -0.054; the highest 2% begin near 0.39. This is one part of the list.
What follows are sequences tested against Ylr278c (UniProt Q05854) (assay: PBM E-score (8-mer binding enrichment) (E-score (-0.5 to 0.5)); higher = stronger / more preferred TF binding; most listed sequences are background and not binding sites). Conditions: protein concentration: 200 nM; construct: GST-DNA-binding domain.
Experimental: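 Universal 'all 10-mer' protein binding microarrays (Agilent AMADID 015681) probed with GST-tagged S. cerevisiae TFs (full-length or DBD) made by in vitro transcription/translation (PURExpress), about 100-200 nM. Bound TF was detected with fluorescent anti-GST. Each ungapped 8-mer (which stands for itself and its reverse complement) is scored by the PBM enrichment score (E-score), a modified Wilcoxon-Mann-Whitney statistic from -0.5 to +0.5, computed with the Universal PBM Analysis Suite. Scale: above 0.35 generally sequence-specific binding.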

Sequence | PBM E-score
CAATCGTC | -0.0904
ACGAAGGG | -0.305
CCGTCACA | 0.09
TACTTTCA | -0.0659
AAAGCTCT | -0.224
AACCTATC | -0.0841
CTTGGCTC | -0.188
AGCGGAGG | 0.302
CCCCCTTA | -0.247
AGCTTGAC | -0.138
GAATCACA | 0.14
CCCTACTC | 0.201
AATCTACA | -0.114
AGTGACAC | -0.0981
CAGACGAG | -0.246
CGCTTAAC | -0.0508
CCGTATCG | 0.122
CCGCGCAG | 0.274
GGGCCACA | -0.0157
ATTCGCGC | 0.118
CCGTCGTC | 0.127
GACCGATC | 0.243
ATTGAATG | -0.0302
AAGGTCCA | -0.124
GTGTTGAA | -0.195

Sequence | PBM E-score
AGAAGCCC | 0.201
CATAGGTC | -0.157
GGGCCCCA | 0.0371
CAAGTACG | -0.185
ATCCTGCA | -0.185
AGTCCTCA | 0.0196
CGCAGACG | 0.0302
CCCTGCGG | 0.132
AACACTCT | 0.0393
ACAATGTC | -0.0284
AAAAGTGG | 0.0219
CCAAATGC | -0.0895
AGTACTAT | -0.178
ATTACTCA | -0.132
ACTATGCC | -0.0527
TCGGGTCA | 0.232
CGCTATAA | -0.0532
ATCCGCCG | 0.401
AGTTGTTA | -0.0971
AAGCGTGT | -0.23
AGCCAGTG | -0.268
AGGAGCAT | -0.156
AGTTAACC | 0.0556
CGAGACGC | -0.00261
AATACATT | -0.121

Sequence | PBM E-score
CGCATAGA | -0.00481
AAACGCTT | -0.0633
TCTTAACA | -0.209
CACTTGAA | -0.137
CCCGATGA | 0.295
TATGGCGA | -0.119
ATAGAGAA | -0.0893
CAGTCAAA | -0.143
ACAGGCAC | -0.126
CGTGACTA | -0.114
CTAATCGA | -0.0569
AATACCGA | 0.224
ACTCTGAA | -0.0533
AGATAAGA | -0.0454
CTTACAGA | -0.0798
AGCGCAGC | 0.0149
CAATGCAG | -0.0883
GAGGTAGC | -0.0618
ACAAAACG | 0.149
AATAGTGT | 0.104
CGGTCACA | 0.0763
ACCGGTCC | 0.337
AGCAGACC | -0.132
AAGTCGTG | -0.158
GACTAACA | 0.00497

Sequence | PBM E-score
CCTCTGTA | -0.276
GGAGGGGA | 0.0648
GCCAACAA | -0.141
CCAGCAAG | -0.203
CCTATGCC | -0.178
CACGGCCA | 0.108
TGCGGTAA | 0.0538
CCGACGAG | 0.253
CGGGGCAG | 0.149
CTTGAATC | -0.16
CTGGAGGA | -0.293
CAAGATCC | 0.167
CACCCAAG | -0.104
GAGAACTA | -0.1
TCATAGCA | -0.308
TACCCCCA | -0.199
AGCCTTAC | -0.198
CGTGCTGA | -0.224
AACCTAGG | -0.102
GCCGGGAA | 0.329
AAACGACG | -0.0198
CAGCATCC | 0.11
CCGAGGGC | 0.326
GATCCTGA | 0.0205
CTACTACC | 0.0471

Sequence | PBM E-score
TGCCTTAA | -0.26
ACACGTAA | -0.101
GGTTAAAA | -0.0491
GGGAGACC | -0.0886
GTGATGTA | -0.0394
AACCCGCC | 0.19
CTCACGCC | 0.0239
GTACAGAA | -0.0383
CACACTGA | -0.31
ATATAGGG | -0.0639
GTCGCCCA | -0.197
CTTGTCAC | -0.238
CGTGGGTA | -0.0486
CTGAGTCC | 0.00022
AGATGTGG | -0.171
AGCATGAC | -0.246
AATCGATC | -0.00877
GCAAGTAC | -0.0843
GAAAGGGC | -0.157
AAGACAAG | 0.0245
TTCTCCAA | -0.115
GCAAGGCC | 0.0928
CGCTAACG | 0.0473
CCTAAACA | -0.149
ATATCCAA | -0.07

Sequence | PBM E-score
CCGAGCGC | 0.323
AATTGTTC | 0.129
TAGTCTAA | -0.197
ATCCTAGA | -0.0621
AGGGTACG | -0.201
ACAGTAGA | -0.133
CAGTAGGG | -0.16
ATAGTCGG | 0.156
GGCGCGGA | 0.352
ACGTCCCC | 0.0469
AGTGTGAC | -0.323
CAGTGCGA | -0.174
CCGAAGCC | 0.311
AGCTGATG | -0.0496
CCGGACTC | 0.43
CAGTACAG | -0.115
AATTAGTC | 0.0276
AATCCCCT | -0.0962
GCCCAACA | -0.279
CAGGCTTC | 0.0948
ACTGGTCA | -0.184
GATTATAA | 0.0727
AGCGGTAC | -0.0549
AAAGGATA | 0.0449
ATTGAGAG | 0.0544

Sequence | PBM E-score
AAGGGCAT | -0.327
AGTCCGAT | 0.458
AATCACAA | -0.181
GTCTCAAC | -0.136
CGGCTCAC | 0.124
CCGGGGAA | 0.399
CGCGAGCC | 0.236
AATGGAAA | 0.0659
GCAGAGAA | -0.11
GCCGGTCC | 0.343
ACTCCTGC | 0.165
AAGCAGAG | -0.22
ATCTCGGG | 0.278
GCAGACCA | -0.063
ACGCGACA | -0.0728
GCACTTTA | -0.0387
CATCTTAG | -0.151
GTTTACCA | -0.0602
ATCGATAG | -0.235
ATCACCTC | -0.0689
GTAGGGGA | -0.00705
ATGCCAAT | -0.164
AGCGTCCC | -0.123
GAATAAAC | 0.0403
ACGCGACT | -0.131

Sequence | PBM E-score
GCGTGGTA | 0.0276
ACGAGGAA | -0.0559
CCGTCGCA | 0.249
CAATACGG | 0.19
CATTCGGG | 0.202
AGCAAGTG | -0.312
ACTAGCTC | -0.157
CCGTCTCA | 0.0735
GCGCGTCA | 0.0214
AATTTATA | -0.0303
CATGAAGG | -0.145
ATTGGAGG | -0.102
ATGCGACC | 0.224
CGACTACC | 0.0547
GCATCCAA | -0.142
CTTGTTAC | -0.0957
ATGGTTAA | -0.218
AAGGCCTT | -0.419
CGCAAATA | 0.152
CCCTCACC | -0.103
GGGCGTCA | 0.0419
GCCGCCAA | 0.0716
GATTTCAC | 0.147
ACGAAATC | 0.0376
GAACATGC | -0.158

Sequence | PBM E-score
CAATCGCC | 0.148
AGCGATCG | 0.0532
ATCAGCAC | -0.169
AATTCAAT | -0.026
AGTCGAAC | -0.0544
ACCCAATA | -0.00615
AGCGCTGC | -0.152
CAACACAA | -0.102
ATAACATG | -0.00356
GCGCGGCC | 0.203
ACGCCCTG | -0.0418
CATGCGCA | -0.083
AATGGGCT | -0.325
TGGGGTAA | 0.138
CCGACGCA | 0.192
AACCGGAA | 0.391
AAGAGGGG | -0.0897
CCGCGTCG | 0.256
GCTTTAAA | -0.0902
GATAATAC | -0.0531
ATACATAT | 0.0738
AATGTAAG | -0.0195
ACGCAGGA | -0.166
CAGAGTGC | -0.168
AGCCTCTA | -0.318

Sequence | PBM E-score
CCCACCCC | 0.303
ACATCTTG | -0.185
AGATATTC | -0.146
AATAAACG | 0.0237
CATGTGTA | -0.0836
AGGCCAAG | -0.19
AGGAGCAC | -0.0853
AACAGGGA | -0.0959
CGAATGCA | -0.153
GTTTACAA | -0.056
CTCATTAC | -0.108
TCCGCCAA | 0.347
GGCATGCA | -0.144
ACTTGCTG | -0.308
ACGGCCTC | 0.0486
AACCCTAC | -0.291
ATTATACG | 0.101
ATGGACCC | 0.0296
GGCTCGTA | -0.115
CCAGACAA | -0.0498
TACTACGA | -0.195
TAACCCGA | 0.275
TCCTCTAA | -0.263
TAGGGTGA | -0.152
CTACCCTA | -0.223

Sequence | PBM E-score
CTGAAGAC | 0.0116
CCGAGTAA | 0.15
GGTCACAC | -0.232
ACGACTTA | -0.243
GACTGCAC | -0.141
AAGGGATC | 0.0705
CGGAGATA | 0.483
AGGAGCTA | -0.144
AGTCCAGA | -0.0515
ATCCCGTA | 0.158
CAGCACCG | 0.25
ACAAATAC | 0.0775
ATCGGGAC | 0.115
CGTCTCCA | 0.00299
AACAACCC | 0.0827
CTGTCCTA | -0.231
GATTCGTA | -0.0336
CATCGAAG | -0.0673
AATTCTGG | -0.098
ATTCGTGC | -0.0347
ACTCTAAG | 0.0543
CGATTGCA | 0.0394
ACTAGTCG | -0.0761
CCCCTTAG | 0.0521
AAAGGCTT | -0.154

Sequence | PBM E-score
AATGTTGA | -0.127
TGATAGAA | -0.124
GATTCTTA | -0.0307
AAGTGCTG | -0.205
ACTCATTC | 0.16
GTATATTA | -0.198
CGCTATCC | 0.0943
AGGTCTAC | -0.229
TCTCCAAA | -0.126
GCACTCGA | 0.0621
CGAATAGA | -0.193
CCTTGGCG | 0.0155
ACTTATTA | -0.231
ACCAGTTC | -0.0541
CATAAGCG | -0.0734
GAGCTTAA | -0.104
CTTCCACC | -0.115
CCGGTACG | 0.162
AGGAGTAA | 0.0423
ATCAGGGA | -0.162
AAGTTGGC | -0.00422
ATGCTATG | -0.233
GCTGTTCC | 0.0661
ATCTAGTA | -0.27
GTCCGTAA | 0.331

Sequence | PBM E-score
CCGGAGAA | 0.489
CGTGTGAC | -0.00952
GCCATCCA | -0.107
AGAGGGCA | -0.213
GCGCCCAC | 0.0762
ACGAAACT | -0.0402
ATTCGTCC | 0.234
ATATACGA | -0.182
CGCAGCGC | 0.0587
ATAGCGAC | -0.131
ACATGTCT | -0.111
AAAGTGAG | -0.145
AAGCAACG | -0.0532
GAACCGCA | 0.15
AACCTAGA | -0.0646
ATGACTGA | -0.0622
CTAGTGGA | -0.22
AATGCTAC | 0.0767
CGCATTCA | 0.0617
GTCTCTTA | 0.0191
CCGCAACA | 0.27
CGCATCAG | 0.225
CCGTTCTA | 0.162
CGCGCCAA | 0.187
TGAAGGAA | -0.133

Sequence | PBM E-score
ACGGGTCG | 0.0181
ATATCACC | 0.0507
ATTTAATG | -0.00533
ATGTAGCC | -0.0937
ACATTGGA | -0.127
ACGAAGCT | -0.187
AGAGCCGC | 0.236
ATCAACCA | -0.177
CCGAGCCG | 0.379
CCGGTTAC | 0.315
ATGATCAA | -0.255
GGTCCTAC | -0.207
GCTGATCA | -0.00497
TATTGAAA | 0.0175
ATTCTTGA | -0.0207
ATTGCCCG | 0.177
AGCGCTGA | 0.18
CATGGCAG | -0.0043
AGTTAAAC | -0.135
